# Test results: the supplement of paper PMC3724861
# Some of the results follow.
# Tested on: T1, Caupolican (Caup) homeodomain DNA-binding domain
# T1 sequence: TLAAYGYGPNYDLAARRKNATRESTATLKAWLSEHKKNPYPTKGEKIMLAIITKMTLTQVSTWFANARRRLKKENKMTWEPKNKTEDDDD
# Assay: PBM E-score (8-mer, recovered from the published 9-mer minima) (E-score (dimensionless, -0.5 to 0.5)); Drosophila protein; higher = stronger relative binding preference, active = 0.31 or more
# How it was run: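 Caup's homeodomain DNA-binding domain (residues 214-303) was made by in vitro transcription and translation and applied at 100 nM to custom-designed protein binding microarrays. Each value is an enrichment score that gives relative binding preference for a short DNA word, with higher meaning stronger. The 8-mer values were recovered from published 9-mer scores, each of which was the minimum of its two constituent 8-mer scores. A cutoff of 0.31 marks candidate sites.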
row,Sequence,PBM E-score
1,CGGGTATC,inactive: -0.0353
2,GCGGTCGA,≥ -0.0554
3,TGGGGCAA,inactive: -0.0702
4,AGGAATAC,inactive: 0.0898
5,CTAGAAGA,inactive: -0.00033
6,ACCGGCCC,inactive: -0.207
7,AAGCTCCA,inactive: -0.0536
8,TTAGGAAA,inactive: 0.0877
9,CATTCCAA,inactive: 0.0752
10,CGCCAGAA,inactive: -0.165
11,CACCAGAA,inactive: 0.0446
12,TCCTAAAA,≥ 0.0422
13,GATGACGA,inactive: 0.132
14,AGGACACA,≥ 0.208
15,CTTCCGAA,inactive: -0.113
16,ATCAGCTG,inactive: 0.0385
17,CCAGGCGA,inactive: -0.225
18,GATCGTTA,inactive: 0.00773
19,CCAATGAC,inactive: 0.134
20,CGGCCACC,inactive: -0.28
21,GCATCGAC,inactive: 0.051
22,TAACCCCA,inactive: -0.118
23,GTCAGACA,inactive: 0.124
24,ATGCGGCC,inactive: -0.0984
25,CATACGCG,inactive: -0.0121

row,Sequence,PBM E-score
1,GCCATGAA,inactive: -0.0776
2,CCCTTGCA,inactive: -0.181
3,GGAGACGA,inactive: -0.0786
4,ACACGGCT,inactive: 0.193
5,ATACCAAC,inactive: 0.132
6,AATTGCTG,inactive: 0.00128
7,CCCGCGGA,inactive: -0.184
8,ATTCTGGG,inactive: -0.074
9,AAACCAAG,inactive: 0.0333
10,GACAGCTA,inactive: 0.131
11,ATGAGTCG,inactive: 0.0591
12,AATGCTGG,inactive: -0.00497
13,ACGGGGCA,≥ -0.114
14,AGACTCGC,inactive: -0.125
15,GCTGAAAC,inactive: -0.022
16,AGTTGCTG,inactive: 0.0005
17,CATACTCC,inactive: 0.113
18,CGCATAAG,inactive: -0.0518
19,AAGATACG,inactive: 0.0916
20,AATTACTA,inactive: 0.179
21,CATATTAC,inactive: 0.179
22,ACCCCCGT,inactive: -0.296
23,CCTTACGC,inactive: -0.0569
24,CTCCTCCC,inactive: -0.278
25,AATTGCTA,inactive: 0.0647

row,Sequence,PBM E-score
1,ACTTGCTA,inactive: 0.131
2,GTAAGTGA,inactive: 0.0828
3,CGATATGA,inactive: 0.0413
4,CCCATCGA,inactive: -0.0804
5,AAGTAGGA,≥ 0.0723
6,CGATACCG,inactive: -0.126
7,ACAGGTTC,inactive: 0.119
8,TATGCAGA,inactive: 0.0345
9,GGGCTCTA,inactive: -0.168
10,ACATAAAG,inactive: 0.215
11,AGCAGCCC,inactive: -0.191
12,CATTAAGA,inactive: 0.0649
13,AGACAACC,inactive: 0.201
14,AATGTCAA,inactive: 0.235
15,CAGTTTTC,inactive: 0.013
16,AGCCTGAG,inactive: -0.183
17,AAAACAGG,inactive: 0.151
18,CAGTCAAC,inactive: 0.00777
19,ATGCACAG,inactive: 0.0286
20,AGGACGTA,inactive: -0.0324
21,GGTCGGAA,inactive: -0.0888
22,CTCTACAC,inactive: 0.0598
23,AGACGAAC,inactive: 0.127
24,ACCAGGTC,inactive: -0.0436
25,GGGCTCAC,inactive: -0.165

row,Sequence,PBM E-score
1,ATCACACC,inactive: 0.0998
2,CATGTGGA,inactive: 0.127
3,CGATTCAA,inactive: -0.00124
4,CTTGATCA,inactive: 0.114
5,CAGACCGA,inactive: -0.108
6,GCCACAAA,inactive: -0.0457
7,ACGGTAAC,inactive: 0.134
8,AAGGTCCC,inactive: -0.0972
9,AGGATATC,inactive: 0.0657
10,ATAGTCAC,inactive: 0.0756
11,AGTGTCCG,inactive: -0.0503
12,GCTCTGAA,inactive: 0.0231
13,ATCCGGGA,≥ -0.045
14,GCAGATGA,inactive: -0.0311
15,CGCAAACG,inactive: -0.0571
16,CAAACCGG,inactive: -0.0647
17,ACCAAGGC,inactive: -0.145
18,CGGCGCTA,inactive: -0.184
19,GTATAGAC,inactive: 0.14
20,AGCAGGTA,inactive: 0.00539
21,CCTATGTA,active: 0.318
22,CGATGAGA,inactive: -0.0248
23,AGGGTAAC,inactive: 0.0404
24,AGATGTAC,inactive: 0.299
25,ATTATCAG,inactive: 0.0887

row,Sequence,PBM E-score
1,CCTGCAAC,inactive: 0.0474
2,ATACAGGC,inactive: 0.0779
3,ATTAAATA,inactive: 0.132
4,CAGCCACA,inactive: -0.0816
5,AATCGATT,inactive: 0.112
6,CCCAAGCC,inactive: -0.173
7,CTGGCACC,inactive: -0.157
8,CTGCGTAC,inactive: 0.00168
9,AGTCTCAC,inactive: -0.0687
10,CATGAACG,inactive: 0.0839
11,GGGGGCGA,inactive: -0.279
12,AATACGTA,inactive: 0.148
13,TATCTTAA,inactive: 0.1
14,ATTATCAC,inactive: 0.206
15,CCAGATGA,inactive: 0.0249
16,CACAGCAG,inactive: 0.0172
17,ACGGGAGC,inactive: -0.111
18,ACACGTGC,inactive: 0.181
19,CAACGGTA,inactive: -0.0573
20,ATAAGGAC,inactive: 0.0133
21,GGTGATAC,inactive: 0.0883
22,AAAAGCAG,inactive: -0.091
23,ACCGCGTC,inactive: -0.0819
24,TATCGTAA,inactive: 0.114
25,ACCGCCGC,inactive: -0.225

row,Sequence,PBM E-score
1,AAAGGTTA,inactive: -0.0429
2,CCGAGAGC,inactive: -0.211
3,TCTATAGA,inactive: 0.0302
4,GCGCCCAA,inactive: -0.0859
5,AAAGGAAC,inactive: 0.0554
6,GAGGCCCC,inactive: -0.337
7,AGGCCCAT,inactive: -0.246
8,CTAACCTC,inactive: -0.0639
9,CAGCTTGG,inactive: -0.067
10,ACGGGTAA,inactive: 0.075
11,GCGAAACC,inactive: 0.034
12,CACCGCAC,inactive: -0.12
13,GCATGGCA,inactive: -0.0563
14,GCCCGAGA,inactive: -0.13
15,CCAAGCAC,inactive: 0.0788
16,GAAACGGC,inactive: -0.0798
17,CAACTTTA,inactive: 0.0753
18,CTCGTCAC,inactive: 0.0352
19,ACTACATC,active: 0.33
20,TATCAAAA,inactive: 0.116
21,GATCACAA,inactive: 0.157
22,ATATACAA,active: ≥ 0.355
23,AACGTAGT,≥ 0.151
24,ATATGGTA,≥ 0.208
25,CACATTGA,inactive: 0.134

row,Sequence,PBM E-score
1,ACCCTGGC,inactive: -0.248
2,GTAAGATA,inactive: 0.128
3,CGTTGTAA,inactive: 0.261
4,GCTAAGCA,inactive: -0.0629
5,AAATAATG,inactive: 0.145
6,CCGAATAC,inactive: 0.0686
7,GGACGAAC,inactive: 0.0252
8,ATCATGCA,inactive: 0.103
9,AGAGGTTC,inactive: -0.127
10,CTCACGAG,inactive: -0.127
11,CTCAATTC,inactive: -0.0175
12,ACCATTGC,inactive: -0.0218
13,GCGAAACA,inactive: 0.0685
14,CGAGTTAC,inactive: 0.0872
15,GCCGGTCA,inactive: -0.114
16,GGTGTTAA,inactive: 0.18
17,AAGGCCAT,inactive: -0.0223
18,CTGCGCAC,inactive: -0.154
19,GGCCTGTA,inactive: -0.0586
20,CCTCTTGA,inactive: -0.0197
21,GTGGGGAA,inactive: -0.0668
22,AGAACCAC,inactive: 0.0098
23,ACGATCGT,inactive: 0.0282
24,GTGTGTAA,inactive: 0.275
25,TGCCAACA,≥ 0.0994

row,Sequence,PBM E-score
1,AAATAGAT,≥ 0.153
2,AGTTAGTG,inactive: 0.0873
3,TATCGGGA,inactive: 0.0232
4,CCGTTACA,inactive: 0.216
5,CCTGCAGC,inactive: -0.122
6,GCCGCATA,inactive: -0.107
7,TATCCATA,inactive: 0.143
8,ACTTTTGG,inactive: -0.0333
9,AAACCGTG,inactive: 0.0536
10,ATTGAAAG,inactive: 0.05
11,CCTGTTTC,inactive: 0.17
12,CCGAAATA,inactive: 0.0631
13,AGCAGTCA,inactive: -0.0614
14,AGGCCCAA,inactive: -0.126
15,TTATAGAA,inactive: 0.109
16,CGCCACAG,inactive: -0.0648
17,AGGTTGAA,inactive: -0.00047
18,CACGTCCC,inactive: -0.0517
19,AAGAGCTG,inactive: -0.0086
20,AAATACCG,≥ 0.0751
21,ATGTCCTA,inactive: 0.267
22,ACATCCCT,inactive: 0.191
23,TGTAGGAA,inactive: 0.115
24,AAACAAAC,inactive: 0.201
25,CTCCCAAA,inactive: -0.103

row,Sequence,PBM E-score
1,AAGATCTG,inactive: 0.0553
2,AAAATGGT,inactive: 0.117
3,CGCATCAA,inactive: 0.0212
4,ATATTTCA,inactive: 0.151
5,AACAAGGG,inactive: 0.278
6,AGCACCTC,inactive: -0.0781
7,CCTAAATA,inactive: 0.0729
8,ACCCCAAA,inactive: -0.117
9,GGGGCCCA,inactive: -0.322
10,CAAATCAG,inactive: 0.151
11,TACGACGA,inactive: 0.134
12,GGCTCATA,inactive: -0.0512
13,CTGATAGC,inactive: -0.0812
14,CATTCCGA,inactive: 0.0885
15,ACTTAAGG,inactive: -0.0168
16,ACGGCGCT,inactive: -0.224
17,ATAGGTGG,inactive: 0.0433
18,ACTCAACG,inactive: -0.0592
19,ATTGACCC,inactive: 0.0307
20,ACTAAACG,inactive: 0.0821
21,CTGACTAC,inactive: 0.103
22,GTACGCCA,inactive: -0.00274
23,GAAGATGA,inactive: -0.038
24,ACCGTACA,inactive: 0.193
25,AACGACGA,inactive: 0.0336
